Data as given in the GPR68 mutational scans of Howard et al. (2025).
Scores with a large standard error are left out. The source holds two more conditions with little spread; they are left out. Read del as a deletion of the residues named and ins as an insertion between two positions. For part of these data: The data file names ogerin without a concentration.

B1: GPR68, Q15743 (parent)
chain: MGNITADNSSMSCTIDHTIHQTLAPVVYVTVLVVGFPANCLSLYFGYLQIKARNELGVYLCNLTVADLFYICSLPFWLQYVLQHDNWSHGDLSCQVCGILLYENIYISVGFLCCISVDRYLAVAHPFRFHQFRTLKAAVGVSVVIWAKELLTSIYFLMHEEVIEDENQHRVCFEHYPIQAWQRAINYYRFLVGFLFPICLLLASYQGILRAVRRSHGTQKSRKDQIQRLVLSTVVIFLACFLPYHVLLLVRSVWEASCDFAKGVFNAYHFSLLLTSFNCVADPVLYCFVSETTHRDLARLRGACLAFLTCSRTGRAREAYPLGAPEASGKSGAQGEEPELLTKLHPAFQTPNSPGSGGFPTGRLA

How the values were obtained:
[1] = variants of: B1; assay: cAMP reporter score (Enrich2 score, wild type = 0); higher = more signal; HEK293T, FACS bins
[2] = variants of: B1; assay: surface expression score (Enrich2 score, wild type = 0); higher = more signal; HEK293T, FACS bins

H89Y
cAMP reporter score ([1]; pH 5.5): -0.174
cAMP reporter score ([1]; pH 6): -0.433
cAMP reporter score ([1]; pH 6, modulator: ogerin): -0.531
cAMP reporter score ([1]; pH 6.5, modulator: ogerin): -0.761
surface expression score [2]: -0.624

H89_G90insG
cAMP reporter score ([1]; pH 5.5): -0.116
cAMP reporter score ([1]; pH 6): 0.006
cAMP reporter score ([1]; pH 6, modulator: ogerin): -0.838

G90A
cAMP reporter score ([1]; pH 5.5): -0.202
cAMP reporter score ([1]; pH 6): -0.493
cAMP reporter score ([1]; pH 6, modulator: ogerin): -0.395
cAMP reporter score ([1]; pH 6.5, modulator: ogerin): -0.662
surface expression score [2]: 0.754

G90C
cAMP reporter score ([1]; pH 5.5): -0.19
cAMP reporter score ([1]; pH 6): -0.714
cAMP reporter score ([1]; pH 6, modulator: ogerin): -0.088
cAMP reporter score ([1]; pH 6.5, modulator: ogerin): -0.715
surface expression score [2]: 1.18

G90D
cAMP reporter score ([1]; pH 5.5): 0.74
cAMP reporter score ([1]; pH 6): -0.456
cAMP reporter score ([1]; pH 6, modulator: ogerin): 0.145
cAMP reporter score ([1]; pH 6.5, modulator: ogerin): -0.198
surface expression score [2]: 0.409

G90E
cAMP reporter score ([1]; pH 5.5): -0.449
cAMP reporter score ([1]; pH 6): 0.511
cAMP reporter score ([1]; pH 6, modulator: ogerin): -1.08
cAMP reporter score ([1]; pH 6.5, modulator: ogerin): -0.951
surface expression score [2]: 0.359

G90F
cAMP reporter score ([1]; pH 5.5): -0.872
cAMP reporter score ([1]; pH 6): -2.38
cAMP reporter score ([1]; pH 6.5, modulator: ogerin): 0.545
surface expression score [2]: -1.23

G90H
cAMP reporter score ([1]; pH 5.5): 0.149
cAMP reporter score ([1]; pH 6): -0.488
cAMP reporter score ([1]; pH 6, modulator: ogerin): -0.018
cAMP reporter score ([1]; pH 6.5, modulator: ogerin): 0.115
surface expression score [2]: 1.35

G90I
cAMP reporter score ([1]; pH 5.5): -0.3
cAMP reporter score ([1]; pH 6): -0.077
cAMP reporter score ([1]; pH 6, modulator: ogerin): -0.785
cAMP reporter score ([1]; pH 6.5, modulator: ogerin): -1.49
surface expression score [2]: -0.992

G90K
cAMP reporter score ([1]; pH 5.5): -0.961
cAMP reporter score ([1]; pH 6): -0.31
cAMP reporter score ([1]; pH 6, modulator: ogerin): -0.838
cAMP reporter score ([1]; pH 6.5, modulator: ogerin): -0.511
surface expression score [2]: 1.74

G90L
cAMP reporter score ([1]; pH 5.5): -1.62
cAMP reporter score ([1]; pH 6): -0.634
cAMP reporter score ([1]; pH 6, modulator: ogerin): -0.483
cAMP reporter score ([1]; pH 6.5, modulator: ogerin): -0.884
surface expression score [2]: -0.037

G90M
cAMP reporter score ([1]; pH 5.5): -1.05
cAMP reporter score ([1]; pH 6): -0.539
cAMP reporter score ([1]; pH 6, modulator: ogerin): 0.444
cAMP reporter score ([1]; pH 6.5, modulator: ogerin): -0.826
surface expression score [2]: 0.788

G90N
cAMP reporter score ([1]; pH 5.5): 0.13
cAMP reporter score ([1]; pH 6): -0.871
cAMP reporter score ([1]; pH 6, modulator: ogerin): -0.032
cAMP reporter score ([1]; pH 6.5, modulator: ogerin): -0.023
surface expression score [2]: 0.209

G90P
cAMP reporter score ([1]; pH 5.5): 0.318
cAMP reporter score ([1]; pH 6): 0.157
cAMP reporter score ([1]; pH 6, modulator: ogerin): 0.55
cAMP reporter score ([1]; pH 6.5, modulator: ogerin): 0.794
surface expression score [2]: -1.39

G90Q
cAMP reporter score ([1]; pH 5.5): -1.83
cAMP reporter score ([1]; pH 6): -0.278
cAMP reporter score ([1]; pH 6, modulator: ogerin): -1.1
cAMP reporter score ([1]; pH 6.5, modulator: ogerin): -0.697
surface expression score [2]: 0.843
